The campaign covered roughly 200,000 compounds. About 10 (0.005%) were called active. Inconclusive results, whose numbers are uncertain, are shown with a selection of clear calls. Calls follow the shape of the dose curve; as a rule, active = well fitted inhibition curve with a large enough effect; inconclusive = small, poorly fitted or top-dose-only effect, or effect the other way, or another doubt; inactive = no such curve, though single readings can be large or run the other way. Potencies of inconclusive entries are left out as doubtful fits.
target: Lysosomal alpha-glucosidase (Homo sapiens) (UniProt P10253); test: qHTS Assay for Inhibitors of Human alpha-Glucosidase as a Potential Chaperone Treatment of Pompe Disease; details: purified human GAA, 4-MU-alpha-glucoside fluorescence; activity change, negative = inhibition: at 76.9 µM (top of the series) unless noted;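 as to activity change, negative = inhibition: plate controls were uninhibited enzyme wells for no effect and no-enzyme background for full effect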
Procedure, shortened: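 Endpoint fluorogenic read: 20 min room-temperature reaction of 4 nM human alpha-glucosidase with 400 uM 4-methylumbelliferyl-alpha-D-pyranoside, pH 5.0, quenched with 1M NaOH/1M glycine pH 10. AC50 from Hill modeling.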
Potency is read from the fitted curve at half-maximal effect; tags tell the direction and shape of the fitted curve.

| SMILES | activity change, negative = inhibition | Potency |
| --- | --- | --- |
| COc1nc(-c2cccs2)cc(-c2ccc(C)cc2)c1C#N | inconclusive: 101% [activator] |  |
| Cc1ncoc1C(=O)N1CCc2c([nH]c3ccccc23)C1C1CCCCC1 (configuration not stated) |  | inconclusive [inhibitor, single point] |
| CCCS(=O)(=O)n1nc(-c2ccc(Br)cc2)cc1N |  | inconclusive [activator, partial curve] |
| Cc1ccc(NC(=O)c2cc(S(=O)(=O)NCCC3=CCCCC3)ccc2F)cc1F | inconclusive: -17.4% [inhibitor] |  |
| CN1CCCN(C(=O)c2ccc(Cl)c(S(=O)(=O)N(C)c3ccccc3)c2)CC1 | inconclusive: -18.7% [inhibitor] |  |
| CCNC(=S)N(Cc1ccc2c(c1)OCO2)C1CC(=O)N(c2ccc(OC)cc2)C1=O (configuration not stated) |  | inconclusive [inhibitor, single point] |
| COc1ccc(NS(=O)(=O)c2ccc(C(=O)N3CCN(Cc4ccccc4)CC3)cc2)cc1 |  | inconclusive [inhibitor, single point] |
| COC(=O)c1ccc(N2CCN(C(C)=O)CC2)c(NC(=O)COc2ccccc2C)c1 |  | inconclusive [inhibitor, single point] |
| CCOC(=O)c1sc(NC(=O)CSc2nnnn2-c2ccc(C)cc2)c(C(=O)OCC)c1C |  | inconclusive [inhibitor, single point] |
| CCOc1ccc(/C=c2\sc3nc(-c4ccco4)nn3c2=O)cc1OCC |  | inconclusive [inhibitor, full curve] |
| Cc1ccc2oc(-c3ccccc3C(=O)O)cc(=O)c2c1 | inconclusive: -16% [inhibitor] |  |
| C=CCn1c(N)c(C(=O)OCCC)c2nc3ccccc3nc21 |  | inconclusive [activator, partial curve] |
| Cc1nc(SCc2ccc(Cl)c(Cl)c2)ncc1C(=O)O |  | inconclusive [inhibitor, single point] |
| Cc1ccc(-n2ncc3c(NCCCOC(C)C)ncnc32)c(C)c1 |  | inconclusive [inhibitor, single point] |
| CCc1cc(CNC(=O)CC2C(=O)NCCN2Cc2c(F)cccc2Cl)on1 (configuration not stated) | inconclusive: 15.6% [activator] |  |
| Cc1ccc(CNC(=O)CN2CCC(C(N)=O)CC2)cc1 | inconclusive: -17.9% [inhibitor] |  |
| Cc1cc(C)cc(C(=O)NC(=S)Nc2ccc(-c3cc4ccccc4oc3=O)cc2)c1 |  | inconclusive [inhibitor, single point] |
| Cc1ccc(S(=O)(=O)N2CCCC(C(=O)Nc3ccc(C(=O)O)cc3)C2)cc1Cl (configuration not stated) |  | inconclusive [inhibitor, single point] |
| COc1ccc(C2NC(=O)c3sc4nc(C)c(C(C)=O)c(-c5ccc(Cl)cc5)c4c3N2)cc1 (configuration not stated) | inconclusive: 18% [activator] |  |
| CCSc1nnc(Cc2cc(=O)[nH]c(=O)[nH]2)n1-c1cc(C)ccc1C |  | inconclusive [inhibitor, single point] |
| Oc1csc(Cc2nc(-c3ccc(Br)cc3)cs2)n1 |  | inconclusive [activator, single point] |

| SMILES | activity change, negative = inhibition | Potency |
| --- | --- | --- |
| Cn1c(N)c(C(=O)COC(=O)/C=C/c2ccc(OC(F)F)cc2)c(=O)n(C)c1=O |  | inconclusive [inhibitor, single point] |
| COc1cc2c(cc1OC)C(C)=NCC2 |  | inconclusive [activator, partial curve] |
| COCCN1C=C(C(=O)OC)C(c2ccccc2C(F)(F)F)C(C(=O)OC)=C1 |  | inconclusive [activator, partial curve] |
| O=S(=O)(c1ccc(S(=O)(=O)N(Cc2cccs2)CC2CCCO2)cc1)N1CCCCC1 (configuration not stated) | inconclusive: 10% [activator] |  |
| COCCCN(CC(=O)Nc1ccc(N2CCOCC2)cc1)S(=O)(=O)c1ccc(C)cc1 |  | inconclusive [inhibitor, single point] |
| Cc1sc2nc(CN3CCCC3)nc(N3CCN(S(=O)(=O)c4cccs4)CC3)c2c1C | inconclusive: -15.2% [inhibitor] |  |
| O=[N+]([O-])c1ccccc1SNc1ccccn1 |  | inconclusive [inhibitor, full curve, poor fit] |
| CCOC(=O)c1ccoc1CSCC(=O)N1CCN(S(=O)(=O)c2ccc(C)cc2)CC1 |  | inactive |
| CCC1(C)NC(=O)N(CC(=O)N2N=C(c3ccccc3)CC2c2ccc(OC)cc2)C1=O (configuration not stated) | inconclusive: -16.2% [inhibitor] |  |
| CCOC(=O)c1c(OCC)[nH]c2c1cc(O)c1ccccc12 |  | inactive |
| CC(C)CCC(C(=O)O)C(C)CC(=O)NC1CCCCC1 (configuration not stated) | inconclusive: -16.6% [inhibitor] |  |
| Cc1ccc(S(=O)(=O)N2CCN(CC(=O)N/N=C/c3ccc(Br)s3)CC2)cc1 |  | inconclusive [inhibitor, single point] |
| C=CCn1c(CSc2nc3ccccc3s2)nnc1SCC(=O)NCc1ccccc1 | inconclusive: -15.1% [inhibitor] |  |
| COc1ccc(-n2c(Cc3cccn3C)nnc2SCC(=O)Nc2ccc(C)cc2C)cc1 |  | inconclusive [inhibitor, partial curve] |
| CN1N=C(C(F)(F)F)CC1=O |  | inactive |
| O=C(c1n[nH]c(=O)c2ccccc12)N1CCN(C2c3ccccc3-c3ccccc32)CC1 |  | inconclusive [inhibitor, partial curve, poor fit] |
| Cc1ccn2c(Nc3ccccc3C)c(-c3ccccn3)nc2c1 |  | inactive |
| COc1ccccc1CN=Cc1[nH]c2ccc(Br)c(Cl)c2c1O |  | inconclusive [inhibitor, single point] |
| CC(C)C(=O)NNC(=O)CN1CCN(c2nc(-c3ccccc3)cs2)CC1 | inconclusive: 23.2% [activator] |  |
| O=C(NC1CC2CCC1C2)C1CCN(S(=O)(=O)c2ccc(-c3nn[nH]n3)cc2)CC1 (configuration not stated) | inconclusive: -16.9% [inhibitor] |  |
| Cc1ccc(Nc2nc3c([nH]2)c(=O)n(C)c(=O)n3C)cc1 |  | inactive |

— PubChem BioAssay AID1466 (National Center for Advancing Translational Sciences (NCATS), 2008)
